From PubChem BioAssay AID651820 (National Center for Advancing Translational Sciences (NCATS), 2012)
Screen size: about 340,000 compounds; about 12,000 (3.5%) were called active. The shares of active, inactive and inconclusive entries below differ from those in the screen. Calls come from the whole dose curve; as a rule, active = well fitted inhibition curve with a large enough effect; inconclusive = small, poorly fitted or top-dose-only effect, or another doubt; inactive = no such curve, though single readings can be large or run the other way. No potency is given beside an inconclusive call; the fits are too rough.

Experiment: qHTS Assay for Inhibitors of Hepatitis C Virus (HCV)
Conditions: Huh7.5.1 HCVcc-Cre (HCVcc is cell-culture hepatitis C virus) infection, luciferase reporter, 44 h; series mostly up to 41.8 µM
In short: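 A cell-based infection assay in which seeded cells (1,000 per well) receive test compound after 4 h, are inoculated with HCVcc-Cre at approximately 0.5 moi, and are incubated 44 h before luminescence detection.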
Potency is the fitted concentration of half-maximal effect; tags give direction and shape of the fitted curve.

Row | SMILES | Potency
1 | CCOC(=O)c1nc2ccccc2c(=O)[nH]1 | inconclusive [inhibitor, single point]
2 | O=[N+]([O-])c1ccc(-n2cnc3ccccc32)c([N+](=O)[O-])c1 | inconclusive [inhibitor, single point]
3 | CC(C)NC(=O)N1CC(c2ccccc2)C(c2ccc(Cl)cc2)=N1 (centres undefined) | inconclusive [inhibitor, single point]
4 | O=C(CNC(=O)c1ccccc1Br)N/N=C/c1ccccc1O | inconclusive [inhibitor, single point]
5 | CC(C)c1ccc(C(C(=O)NC2CCCCC2)N(C(=O)c2ccccn2)c2cccnc2)cc1 (centres undefined) | inactive
6 | Cc1ccc(C(=O)N2CCC(C)CC2)cc1S(=O)(=O)N1CCCCC1 | inconclusive [inhibitor, partial curve]
7 | COc1ccc(C)cc1NC(=O)C1CCC(CNc2c(N3CCOCC3)c(=O)c2=O)CC1 (centres undefined) | inconclusive [inhibitor, partial curve]
8 | Cc1cccc(N2CCN(C(=O)C(Cc3ccccc3)n3cccc3)CC2)c1C (centres undefined) | inconclusive [inhibitor, single point]
9 | Clc1ccc(COn2nnc3ccccc32)c(Cl)c1 | inactive
10 | CN(Cc1ccccc1)C(=O)c1cccc(NC(=O)Cc2ccc(NC(=O)C3CCCN(C(=O)C4CCCCC4)C3)cc2)c1 (centres undefined) | active: 7.94 µM
11 | COC(=O)c1cc(=O)n(Cc2ccc(OC)c(OC)c2)c(=Nc2ccc(F)cc2)s1 | active: 11.2 µM
12 | Cc1ccc(C(=O)NCc2nnc(SCC(=O)Nc3ccccc3)n2C)cc1 | inconclusive [inhibitor, full curve, poor fit]
13 | Cc1cc(Cl)ccc1OCC(=O)Nc1cccnc1 | inconclusive [inhibitor, single point]
14 | O=C(c1cc(-c2ccc(Cl)cc2)on1)N1CCCC1 | inactive
15 | CCN(CC)c1ccc(/C=N/Nc2nc(C)cc(C)n2)cc1 | inconclusive [inhibitor, partial curve]
16 | CC1(C)CC(=O)C2=C(C1)OC1=C(C(=O)CC(C)(C)C1)C2c1ccc(O)cc1O | inconclusive [inhibitor, single point]
17 | O=c1c2c(-c3ccccc3)csc2nc2c3ccccc3c(NCCN3CCOCC3)nn12 | inconclusive [inhibitor, single point]
18 | Cc1cc(C)c(S(=O)(=O)c2cccc(Cl)c2)c(Cl)n1 | inconclusive [inhibitor, single point]
19 | COc1c(C)cc(C(=O)C2CCCN(S(=O)(=O)N(C)C)C2)cc1C (centres undefined) | inactive
